About 1,800 (2.5%) of roughly 73,000 compounds were called active. The shares of active, inactive and inconclusive entries below differ from those in the screen. Calls follow the shape of the dose curve; as a rule, active = well fitted activation curve with a large enough effect; inconclusive = small, poorly fitted or top-dose-only effect; inactive = no such curve, though single readings can be large or run the other way. Potencies of inconclusive entries are left out as doubtful fits.
Assay: qHTS Assay for Agonists of the Thyroid Stimulating Hormone Receptor: Activators of Intracellular cAMP Concentrations in Parental HEK 293; also: nearly all actives have a fitted effect of over 55% in size; as to activation: % of control where 0% means no effect
Details: parental HEK293 CNG cAMP sensor, membrane potential fluorescence; activation: at 57.1 µM (top of the series) unless noted
Outline: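 Parental HEK 293 cells stably expressing a cAMP-gated CNG channel were loaded with membrane potential dye containing 100 uM RO 20-1724 for 60 min. Compound added for 30 min; depolarization read as fluorescence intensity at 590 nm.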
Potency is read from the fitted curve at half-maximal effect; tags tell the direction and shape of the fitted curve.

Row | SMILES | Potency | activation
1 | O=C(Nc1ccccc1)N(CCCN1CCOCC1)Cc1ccccc1F | inactive | –
2 | COC(=O)[C@@]1(Cc2ccc(F)cc2)[C@H]2c3cc(C(=O)N(C)C)n(CCF)c3C[C@H]2CN1C(=O)c1ccccc1 | inconclusive [activator, partial curve] | –
3 | Cc1ccc(-c2nc(CS(=O)(=O)CC(=O)N3CCCCCC3)c(C)o2)cc1 | inconclusive [activator, single point] | –
4 | COC(=O)[C@@]1(Cc2ccccc2)[C@H]2c3cc(C(=O)N(C)C)n(Cc4ccc(O)c(OC)c4)c3C[C@H]2CN1C(=O)c1ccccc1 | active: 25.1 µM | –
5 | Cc1ccc2cc(CN(Cc3ccco3)C(=O)C3CCCCC3)c(=O)[nH]c2c1C | active: 20 µM | –
6 | O=S(=O)(c1ccccc1)c1nc(-c2ccco2)oc1NCc1cccnc1 | inconclusive [activator, single point] | –
7 | O=C(c1cccs1)N1CCC(c2ccccc2)C1 (stereo unspecified) | inactive | –
8 | COc1cc(-c2noc(-c3ccccc3C(=O)NCc3ccco3)n2)cc(OC)c1OC | inconclusive [activator, single point] | –
9 | Cn1c2ccccc2c2c(C(=O)NCc3ccco3)cn(C3CCCCC3)c(=O)c21 | inconclusive [activator, full curve, poor fit] | –
10 | CCCCn1c(SCC(=O)Nc2cc(C)[nH]n2)nc2ccsc2c1=O | inconclusive [activator, single point] | –
11 | CC(=O)N1CC=CC1(CC(C)C)C(=O)NCc1ccc(C)o1 (stereo unspecified) | inactive | –
12 | CC(C)C[C@@H](CC(=O)N[C@@H](CCC(=O)O)CC(=O)O)NC(=O)[C@@H]1CNCC[C@H]1NC(=O)C[C@H](CCCN)NC(=O)C[C@H](CO)NC(=O)[C@@H]1CNCC[C@H]1N | inconclusive [activator, single point] | –
13 | Cn1c(SCC(=O)Nc2ccccc2F)nnc1-c1ccc(S(=O)(=O)N2CCOCC2)cc1 | inconclusive [activator, single point] | –
14 | Cc1onc(-c2ccccc2)c1C(=O)NCCc1c[nH]c2ccccc12 | inactive | –
15 | CCCCN(Cc1cc2cc(OC)ccc2[nH]c1=O)C(=O)c1ccco1 | inconclusive [activator, single point] | –
16 | CCC(=O)Nc1ccc(C(=O)Nc2ccc3c(c2)OCO3)cc1 | inactive | –
17 | O=C(NCc1cccs1)C1CCN(c2ccc(S(=O)(=O)N3CCOCC3)cc2Cl)CC1 | inconclusive [activator, single point] | –
18 | C=CCn1c(SCC(=O)Nc2ccc3c(c2)OCO3)nnc1-c1ccccc1OC | inconclusive [activator, single point] | –
19 | Nc1nonc1-c1nc2ccccc2n1Cc1ccc(Cl)cc1 | active: 15.8 µM | –
20 | Cc1ccc(-c2noc(CN3CCN(Cc4ccccc4)CC3)n2)cc1 | inconclusive [activator, partial curve] | –
21 | CC(=O)N(CCP(=O)(c1ccccc1)c1ccccc1)Cc1ccco1 | active: 31.6 µM | –
22 | CCOc1ccc(OCC)c(Nc2cc(C)nc3nc(C)nn23)c1 | inactive | –
23 | COc1cc(OC)c(-c2nn3c(C4CCCCC4)nnc3s2)cc1OC | inactive | –
24 | Cc1ccc(SCC(=O)N(Cc2nc(-c3ccccc3)no2)C(C)C)cc1 | inconclusive [activator, partial curve] | –

Row | SMILES | Potency | activation
25 | c1ccc(-c2cnc(-c3ccc(-c4ncc(-c5ccccc5)o4)cc3)o2)cc1 | inconclusive [activator, single point] | –
26 | COc1ccc(Br)c(C(=O)Nn2c(C)nc3ccccc3c2=O)c1 | inconclusive [activator, single point] | –
27 | O=C1CC2(CCCC2)CC(=O)N1CCCCNC[C@H]1COc2ccccc2O1 | inactive | –
28 | COc1ccc(S(=O)(=O)Cc2ccc(C(=O)N3CCN(c4cc(Cl)ccc4C)CC3)o2)cc1 | inconclusive [activator, partial curve] | –
29 | CCCCn1c(SCC(=O)OCC)nnc1-c1ccoc1C | inconclusive [activator, partial curve] | –
30 | Cc1noc(C)c1C(=O)N1CCC2(CC1)CN(c1cccc(-c3ccccc3)c1)C2 | inactive | –
31 | N#CC(CC(=O)O)=C(c1ccccc1)c1ccccc1 | – | inactive: 17.6% [at 11.4 µM]
32 | CN(CCC#N)c1ncnc2scc(-c3ccccc3)c12 | inconclusive [activator, single point] | –
33 | Cc1cc(C)c(C#N)c(N2CCN(CCOc3ccc(Cl)cc3)CC2)n1 | inconclusive [activator, single point] | –
34 | COc1ccc(CCNC2=NCCS2)cc1 | inconclusive [activator, single point] | –
35 | COc1cccc(C2=NOC(C(=O)N3CCc4ccccc4C3)C2)c1 (stereo unspecified) | inconclusive [activator, single point] | –
36 | Cc1cc(NC(=O)Nc2ccccc2)n(-c2ccccc2)n1 | inconclusive [activator, single point] | –
37 | CN(C)c1ccc(-c2nn3c(-c4ccncc4)nnc3s2)cc1 | inactive | –
38 | CCOc1ccc(OCC)c(NC(=O)C2CCCN2S(=O)(=O)c2cccc3cccnc23)c1 (stereo unspecified) | inconclusive [activator, single point] | –
39 | COc1ccc2[nH]cc(CCNc3ncncc3-c3cccc(C#N)c3)c2c1 | inactive | –
40 | Cc1ccc(S(=O)(=O)c2c(C)nn(C(C)(C)C)c2OC(=O)C2CCCC2)cc1 | inconclusive [activator, partial curve] | –
41 | COc1ccc(CN(C(C)=O)c2cccc(C)c2C)cc1 | inconclusive [activator, partial curve] | –
42 | Cc1ccc(N2CC(C(=O)N3CCN(c4ccccc4)CC3)CC2=O)cc1 (stereo unspecified) | inactive | –
43 | Cc1ccc(-n2nc(C)c3c2OC(N)=C(C#N)C3c2ccccc2F)cc1 (stereo unspecified) | inconclusive [activator, single point] | –
44 | CCCCCC1=C2CNC(CC(C)C)(C(=O)OC)C=C2C(C)C1=O (stereo unspecified) | inconclusive [activator, partial curve, poor fit] | –
45 | COc1c(C)cccc1C(=O)Nc1cc(Cl)ccc1N1CCOCC1 | active: 25.1 µM | –
46 | COc1ccc(CNC(=O)c2c(O)c3ccccc3n(C)c2=O)cc1OC | inconclusive [activator, single point] | –
47 | N#Cc1cc2c(nc1SCc1nc3ccccc3[nH]1)CCC2 | inconclusive [activator, single point] | –
48 | O=c1[nH][nH]c(=S)c(=O)[nH]1 | inconclusive [activator, single point] | –

Row | SMILES | Potency | activation
49 | Cc1cccc(-c2nnc3n2N=C(c2ccccc2Br)CS3)c1 | inconclusive [activator, partial curve] | –
50 | CC(C)C(c1nnnn1C1CCCCC1)N1CCc2ccccc2C1 (stereo unspecified) | active: 5.01 µM | –
51 | CCOC(=O)c1c(C)n(C)c2ccc(OCC(O)Cn3nc(C)cc3C)cc12 (stereo unspecified) | inactive | –
52 | CCc1nccn1S(=O)(=O)c1ccc2ccc(C)cc2c1 | inconclusive [activator, full curve, poor fit] | –
53 | COCCCn1c2nc3ccccc3nc2c2c(=O)n(Cc3ccccc3Cl)cnc21 | active: 25.1 µM | –
54 | CCOC(=O)c1ccc(Oc2nc(OC)nc(N(C)C)n2)cc1 | inconclusive [activator, single point] | –
55 | Cc1cc(NC(=O)c2cnn3c(C(F)(F)F)cc(-c4ccccc4)nc23)no1 | inactive | –
56 | Cc1cc(C)c2nc(N3CCN(C)CC3)c(C#N)cc2c1 | active: 12.6 µM | –
57 | CCCC(=O)N(Cc1cc2cccc(C)c2[nH]c1=O)c1ccccc1OC | inconclusive [activator, partial curve] | –
58 | C=CCNC(=O)c1ccc(Cl)cc1Cl | inactive | –
59 | O=C(c1cccc(F)c1)N1CCC2(CCCN(c3ccccn3)C2)CC1 | inconclusive [activator, partial curve] | –
60 | CCN(CC)S(=O)(=O)c1ccc(F)c(C(=O)NCCC(C)C)c1 | inconclusive [activator, partial curve] | –
61 | Cc1ccccc1Cn1cc(NC(=O)c2cc3nc(-c4ccco4)cc(C(F)(F)F)n3n2)cn1 | inactive | –
62 | CC1CC(C)CN(c2oc(-c3ccccc3Cl)nc2C#N)C1 (stereo unspecified) | inconclusive [activator, single point] | –
63 | O=C(c1ccco1)N1CCN(S(=O)(=O)c2ccc(C3CCCCC3)cc2)CC1 | active: 25.1 µM | –
64 | COc1ccc2oc(=O)c(C(=O)N3CCN(c4ccccc4C)CC3)cc2c1 | inactive | –
65 | COc1ccccc1C(=O)N1CCN(c2nc3cc(C)c(C)cc3cc2C#N)CC1 | active: 12.6 µM | –
66 | Cc1cn(C(=O)c2cccc(Br)c2)c(C)n1 | inconclusive [activator, single point] | –
67 | O=C(c1ccco1)N1CCN(S(=O)(=O)c2ccc(S(=O)(=O)NC3CCCCC3)cc2)CC1 | active: 1.58 µM | –
68 | Cn1c(SCc2cnc(-c3ccccc3)s2)nnc1C1COc2ccccc2O1 (stereo unspecified) | inconclusive [activator, single point] | –
69 | O=C(CN1CCN(c2ncccn2)CC1)Nc1ccccc1-n1cccc1 | inconclusive [activator, single point] | –
70 | COCOc1ccc(Br)cc1C(=O)[C@H]1O[C@H]1c1cccc(OC)c1 | inconclusive [activator, single point] | –
71 | COc1ccc(-n2nc3cc(C)c(NC(=O)c4cccnc4)cc3n2)cc1 | inconclusive [activator, single point] | –

— PubChem BioAssay AID938 (National Center for Advancing Translational Sciences (NCATS), 2007)
